For this test, the system named is BDF1 mice, P288 methotrexate-resistant leukemia, survival T/C. In words: NCI In Vivo Anticancer Drug Screen. Data for tumor model P288 Lymphocytic Leukemia resistant to methotrexate; NSC 740 (intraperitoneal) in B6D2F1 (BDF1) mice. Particulars: endpoint: median survival time, schedule: Q01DX010 (ip), higher = longer survival. The protocol:
The antitumor activity of compounds was measured in mice bearing transplantable tumors. Survival or tumor size were measured and the results are expressed as the measurement made in the treated group (T) divided by the measurement made in the vehicle treated control group (C). The tumor model used in this assay is P288 Lymphocytic Leukemia resistant to methotrexate; NSC 740 (intraperitoneal) in B6D2F1 (BDF1) mice

SMILES strings stand for the structures. Inconclusive results and toxic doses are left out. Not every entry of the source has a single result; some have several. This list holds those alone. The source may hold further records. The values listed for one entry are repeated measurements across runs, samples, wells, individuals or studies.

For `C=CC(CN1CC1)OC(C)=O` (stereo unspecified), the T/C (dose: 8.0 mg/kg/injection, vehicle: saline) was 122 % of control and 150 % of control.

Regarding `O[C@H](CN1CC1)[C@@H](O)CN1CC1`, the T/C reads like this: (dose: 125.0 micrograms/kg/injection, vehicle: saline) 113 % of control and 159 % of control; (dose: 500.0 micrograms/kg/injection, vehicle: saline) 109 % of control, 153 % of control, 160 % of control.

Regarding `Nc1nc(=S)c2[nH]cnc2[nH]1`, for the setting “dose: 10.0 mg/kg/injection, vehicle: other”, the T/C was 122 % of control and 150 % of control.

As for `C1CN1c1nc(N2CC2)nc(N2CC2)n1`, the T/C (dose: 0.5 mg/kg/injection, vehicle: saline) is 100 % of control and 155 % of control.

For the compound `NC(Cc1ccc(N(CCCl)CCCl)cc1)C(=O)O` (stereo unspecified), under “dose: 2.5 mg/kg/injection, vehicle: saline”, the T/C was 113 % of control and 150 % of control.

Values taken from PubChem BioAssay AID204 (DTP/NCI, 2004).
